{"source": "the BET-seq Pho4 binding data (Le et al. 2018)", "note": "The other results are listed elsewhere or left out. The energies were worked out here from pooled read counts, against the library average; single values are noisy.", "data": [{"target": "T1, Pho4 (S. cerevisiae) (UniProt P07270)", "T1 sequence": "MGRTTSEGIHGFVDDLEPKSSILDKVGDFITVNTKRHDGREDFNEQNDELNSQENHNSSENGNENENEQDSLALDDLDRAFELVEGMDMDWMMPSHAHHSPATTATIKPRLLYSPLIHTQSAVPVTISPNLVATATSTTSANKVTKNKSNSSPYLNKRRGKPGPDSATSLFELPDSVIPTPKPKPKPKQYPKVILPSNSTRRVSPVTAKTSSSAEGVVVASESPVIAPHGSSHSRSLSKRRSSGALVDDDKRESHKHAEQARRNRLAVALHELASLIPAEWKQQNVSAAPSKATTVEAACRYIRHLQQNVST", "test": "relative binding free energy (BET-seq); higher = weaker binding", "conditions": "reference: library average", "units": {"relative binding free energy": "kcal/mol"}, "values": [{"sequence": "GCGCACACGTGTGGGT", "relative binding free energy": -0.05}, {"sequence": "TTCTGCACGTGGGTTT", "relative binding free energy": -0.16}, {"sequence": "TGCTTCACGTGGCTTG", "relative binding free energy": 0.09}, {"sequence": "ATGGGCACGTGTAGGC", "relative binding free energy": -0.04}, {"sequence": "TTATTCACGTGCGTTC", "relative binding free energy": 0.27}, {"sequence": "ATGTGCACGTGATAGG", "relative binding free energy": 0.05}, {"sequence": "TTATTCACGTGGAAAG", "relative binding free energy": 0.36}, {"sequence": "GCGTGCACGTGGGTAA", "relative binding free energy": 0.01}, {"sequence": "GTTTTCACGTGTTTGC", "relative binding free energy": 0.22}, {"sequence": "TTTGTCACGTGTGCCG", "relative binding free energy": 0.04}, {"sequence": "TCTTGCACGTGTCGGT", "relative binding free energy": 0.04}, {"sequence": "TTTGGCACGTGGTCTA", "relative binding free energy": -0.28}, {"sequence": "GTCAACACGTGGAGGT", "relative binding free energy": 0.06}, {"sequence": "TTGCTCACGTGGGCGT", "relative binding free energy": 0.08}, {"sequence": "GTTCTCACGTGAGGGG", "relative binding free energy": 0.45}, {"sequence": "GAGGACACGTGGTTGT", "relative binding free energy": 0.06}, {"sequence": "CGAGGCACGTGTGTAT", "relative binding free energy": -0.04}, {"sequence": "AGAGTCACGTGAGTGG", "relative binding free energy": 0.32}, {"sequence": "ATGTACACGTGGTGAC", "relative binding free energy": 0.11}, {"sequence": "GTGTACACGTGATCGA", "relative binding free energy": 0.23}, {"sequence": "ATATTCACGTGTGTCT", "relative binding free energy": 0.29}, {"sequence": "GCTGGCACGTGTGGAA", "relative binding free energy": 0.09}, {"sequence": "CTTAGCACGTGAGGCG", "relative binding free energy": 0.15}, {"sequence": "GGGTACACGTGTGTAA", "relative binding free energy": 0.13}, {"sequence": "GGGAGCACGTGGCTGG", "relative binding free energy": -0.11}, {"sequence": "TGATTCACGTGTTACG", "relative binding free energy": 0.28}, {"sequence": "TCAGGCACGTGAGTGT", "relative binding free energy": -0.09}, {"sequence": "GAGTGCACGTGTTCTG", "relative binding free energy": -0.06}, {"sequence": "TGAATCACGTGTGATA", "relative binding free energy": 0.32}, {"sequence": "ATTGTCACGTGCAGTG", "relative binding free energy": 0.14}, {"sequence": "ACGGGCACGTGATGGG", "relative binding free energy": 0.04}, {"sequence": "ATTTTCACGTGGATGC", "relative binding free energy": 0.18}, {"sequence": "GGCGGCACGTGCTTGA", "relative binding free energy": 0.03}, {"sequence": "TGTATCACGTGAGCCG", "relative binding free energy": 0.38}, {"sequence": "AGGCTCACGTGTGGCT", "relative binding free energy": 0.3}, {"sequence": "GTGGCCACGTGGCGGT", "relative binding free energy": -0.15}, {"sequence": "GTCATCACGTGTGAGG", "relative binding free energy": 0.1}, {"sequence": "AGGATCACGTGGGGTG", "relative binding free energy": 0.06}, {"sequence": "CGGAGCACGTGGTATT", "relative binding free energy": -0.09}, {"sequence": "TACTGCACGTGGGATT", "relative binding free energy": -0.15}, {"sequence": "GGGGTCACGTGGTTAA", "relative binding free energy": 0.23}, {"sequence": "AAAGTCACGTGCTTTG", "relative binding free energy": -0.02}, {"sequence": "GATGACACGTGATGGT", "relative binding free energy": 0.21}, {"sequence": "AGTAGCACGTGTTTAA", "relative binding free energy": -0.17}, {"sequence": "AACTGCACGTGGGGTT", "relative binding free energy": -0.16}, {"sequence": "TATTTCACGTGTCTAT", "relative binding free energy": 0.26}, {"sequence": "ATTGACACGTGAGGTC", "relative binding free energy": 0.21}, {"sequence": "TGTGACACGTGAGGCT", "relative binding free energy": 0.17}, {"sequence": "TTGTGCACGTGTGCGC", "relative binding free energy": -0.04}, {"sequence": "TTGTGCACGTGGAGCG", "relative binding free energy": -0.09}, {"sequence": "GGAGACACGTGGTGAG", "relative binding free energy": -0.07}, {"sequence": "CGTTACACGTGGTGTT", "relative binding free energy": -0.03}, {"sequence": "GTTAGCACGTGGCGGG", "relative binding free energy": -0.13}, {"sequence": "GTTGACACGTGTCTGG", "relative binding free energy": -0.04}, {"sequence": "GCGTTCACGTGTTGGG", "relative binding free energy": 0.32}, {"sequence": "GGCAGCACGTGGGTGC", "relative binding free energy": -0.14}, {"sequence": "TTCATCACGTGTGTAG", "relative binding free energy": 0.09}, {"sequence": "TACGTCACGTGGGATT", "relative binding free energy": -0.04}, {"sequence": "AAGGGCACGTGTACTT", "relative binding free energy": -0.07}, {"sequence": "TTGTTCACGTGTTCGA", "relative binding free energy": 0.14}, {"sequence": "GTGCGCACGTGTAGGT", "relative binding free energy": -0.01}, {"sequence": "CGACGCACGTGGGTTG", "relative binding free energy": -0.2}, {"sequence": "TTAAGCACGTGTGTCG", "relative binding free energy": -0.12}, {"sequence": "TGTTCCACGTGTTGTA", "relative binding free energy": 0.22}, {"sequence": "GGTGTCACGTGGGCTT", "relative binding free energy": 0.02}, {"sequence": "GTGTTCACGTGATTGC", "relative binding free energy": 0.34}, {"sequence": "TCGTTCACGTGCTTGT", "relative binding free energy": 0.01}, {"sequence": "TGCATCACGTGTTTAG", "relative binding free energy": 0.27}, {"sequence": "GCGGCCACGTGAGGGT", "relative binding free energy": 0.04}, {"sequence": "GTTTTCACGTGGTTTG", "relative binding free energy": 0.34}, {"sequence": "TGTCGCACGTGTGGGC", "relative binding free energy": -0.02}, {"sequence": "ATTACCACGTGTGGCT", "relative binding free energy": 0.18}, {"sequence": "TGTGTCACGTGCAAAT", "relative binding free energy": 0.12}, {"sequence": "ACAGTCACGTGGCGGT", "relative binding free energy": 0.15}, {"sequence": "TGTCGCACGTGATGCG", "relative binding free energy": 0}, {"sequence": "GGGTGCACGTGACAGG", "relative binding free energy": 0.03}, {"sequence": "TACGTCACGTGGGGTA", "relative binding free energy": -0.08}, {"sequence": "TGCTTCACGTGCTGGG", "relative binding free energy": 0.21}, {"sequence": "GGTAGCACGTGTGGTG", "relative binding free energy": -0.01}, {"sequence": "GTCATCACGTGTATGT", "relative binding free energy": 0.2}, {"sequence": "CTGGTCACGTGGGTAA", "relative binding free energy": -0.08}, {"sequence": "TCTGTCACGTGGGGCG", "relative binding free energy": -0.06}, {"sequence": "AAATTCACGTGGCTGG", "relative binding free energy": 0.41}, {"sequence": "GTGCTCACGTGTCGTG", "relative binding free energy": 0.1}, {"sequence": "CTTTACACGTGTGGCG", "relative binding free energy": 0.15}, {"sequence": "GAGCGCACGTGTGAGT", "relative binding free energy": 0}, {"sequence": "TTTAACACGTGTTTGC", "relative binding free energy": -0.02}, {"sequence": "TTGTACACGTGAAGTT", "relative binding free energy": 0.26}, {"sequence": "TTAAACACGTGTGGTC", "relative binding free energy": -0.1}, {"sequence": "GAGGTCACGTGGGGCG", "relative binding free energy": 0}, {"sequence": "GGAGACACGTGGGATT", "relative binding free energy": 0.08}, {"sequence": "TAATCCACGTGCGGTG", "relative binding free energy": 0.28}, {"sequence": "ATTCTCACGTGGATTG", "relative binding free energy": 0.2}, {"sequence": "TGATTCACGTGAGGAA", "relative binding free energy": 0.38}, {"sequence": "ATTATCACGTGGGGCC", "relative binding free energy": 0.11}, {"sequence": "CGCGGCACGTGTGTTG", "relative binding free energy": -0.16}, {"sequence": "GTATTCACGTGTTCGT", "relative binding free energy": 0.18}, {"sequence": "TTTAGCACGTGTTCAG", "relative binding free energy": 0.14}, {"sequence": "TATGACACGTGGGTAG", "relative binding free energy": -0.21}, {"sequence": "TTTTTCACGTGGGATG", "relative binding free energy": 0.31}, {"sequence": "TTGTTCACGTGCTCTG", "relative binding free energy": 0.14}, {"sequence": "GTTGGCACGTGTTGGA", "relative binding free energy": 0.02}, {"sequence": "GAGTGCACGTGGGAAA", "relative binding free energy": 0.15}, {"sequence": "TTGTACACGTGAACGT", "relative binding free energy": 0.2}, {"sequence": "ATTGCCACGTGGAATG", "relative binding free energy": 0.08}, {"sequence": "TGTAGCACGTGAGGCA", "relative binding free energy": 0}, {"sequence": "GTTCACACGTGGGGGC", "relative binding free energy": 0.08}, {"sequence": "GTAGGCACGTGGGCTC", "relative binding free energy": -0.07}, {"sequence": "GGGGGCACGTGACGGC", "relative binding free energy": -0.09}, {"sequence": "TGAGACACGTGAAGGA", "relative binding free energy": 0.24}, {"sequence": "TGGTTCACGTGCCGAG", "relative binding free energy": 0.12}, {"sequence": "GTGGGCACGTGGCGCT", "relative binding free energy": -0.21}, {"sequence": "GAATTCACGTGATTTG", "relative binding free energy": 0.52}, {"sequence": "GTGGCCACGTGACGGT", "relative binding free energy": 0.14}, {"sequence": "TAGGTCACGTGAAGTT", "relative binding free energy": 0.4}, {"sequence": "GAGGACACGTGATTTT", "relative binding free energy": 0.28}, {"sequence": "CAGGGCACGTGGCGAT", "relative binding free energy": -0.14}, {"sequence": "TAGTGCACGTGTGTAT", "relative binding free energy": 0.03}, {"sequence": "GGTGACACGTGTCGGA", "relative binding free energy": 0.14}, {"sequence": "CTTTGCACGTGCGGTG", "relative binding free energy": -0.02}, {"sequence": "TGGCACACGTGTTCGT", "relative binding free energy": 0.1}, {"sequence": "TGGGTCACGTGATTTG", "relative binding free energy": 0.38}, {"sequence": "GCTTGCACGTGGTGTC", "relative binding free energy": 0.04}, {"sequence": "ATTGTCACGTGCGTGG", "relative binding free energy": 0.02}, {"sequence": "CTGGGCACGTGAGTGC", "relative binding free energy": 0.07}, {"sequence": "GTGTACACGTGAAGGG", "relative binding free energy": 0.35}, {"sequence": "GTAGACACGTGTTGCG", "relative binding free energy": 0}, {"sequence": "TTTCACACGTGTGAGG", "relative binding free energy": 0.12}, {"sequence": "TGTTGCACGTGAACGT", "relative binding free energy": 0}, {"sequence": "CGATTCACGTGTAGGT", "relative binding free energy": 0.22}, {"sequence": "GAGTCCACGTGGAGGG", "relative binding free energy": 0}, {"sequence": "GGAAACACGTGAAGTT", "relative binding free energy": 0.37}, {"sequence": "AAGGGCACGTGGTACT", "relative binding free energy": -0.16}, {"sequence": "AGTGACACGTGTTGTT", "relative binding free energy": 0.06}, {"sequence": "GTCATCACGTGTGGGT", "relative binding free energy": 0.21}, {"sequence": "CTTTTCACGTGGTATA", "relative binding free energy": 0.07}, {"sequence": "TAGTGCACGTGATTTT", "relative binding free energy": -0.02}, {"sequence": "ATTATCACGTGTCGTT", "relative binding free energy": 0.14}, {"sequence": "CGAGTCACGTGGATTG", "relative binding free energy": 0.08}, {"sequence": "AACATCACGTGATGGG", "relative binding free energy": 0.29}, {"sequence": "GAATGCACGTGTTGAT", "relative binding free energy": 0.06}, {"sequence": "GTATTCACGTGCTTTG", "relative binding free energy": 0.36}, {"sequence": "TTAAGCACGTGTAAGT", "relative binding free energy": 0.03}, {"sequence": "ATTAGCACGTGTTCAG", "relative binding free energy": -0.08}, {"sequence": "GGACACACGTGGGGAT", "relative binding free energy": -0.02}, {"sequence": "TGTATCACGTGTGGGG", "relative binding free energy": 0.26}]}]}
